# Assay results published in the supplement of paper PMC8728848.
# The list shows a part of the results.
# B1: rCnSL-A (Clitocybe nebularis) (protein)
# chain: VNPNLPGPNDVFVGFRGTNNIVGAIYEKDGIKDTPLNNGADAEMGPGSYITDGLFTARIFASGSAGNNPGTTATVCKIYASGVQWRGAPKGYIPVAYFGNGPTAEQRRQTYLRTLGLPGTAIRFGNLNTNPGQGPTAPRQMVVPPGPLRSLLKASCFPAADTRLPQTLHYFEKRVDWNIITAADSQTWGH
# Tests used:
# Assay in all cases: glycan array binding signal (z-score within array); higher = stronger binding
# Details in all cases: glycan notation: IUPAC condensed, linker removed
# Fuc(a1-2)Gal = molecular target: Fuc(a1-2)Gal
# Procedure, shortened: (§1)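 Glycan array data were curated from 3228 arrays in the Consortium for Functional Glycomics database and kept only where the protein sequence was available. Glycan names were converted to IUPAC-condensed notation, and columns mapping to the same glycan were averaged. The binding signal is a within-array Z-score, averaged across arrays of the same protein sequence at different concentrations or buffers and across linkers. Negative Z-scores can be read as non-binding.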
# Fuc(a1-2)Gal(b1-3)GalNAc = molecular target: Fuc(a1-2)Gal(b1-3)GalNAc
# Procedure, shortened: as §1
# [1] = molecular target: Fuc(a1-2)Gal(b1-3)GalNAc(a1-3)[Fuc(a1-2)]Gal(b1-4)Glc
# Procedure, shortened: as §1
# [2] = molecular target: Fuc(a1-2)Gal(b1-3)GalNAc(a1-3)[Fuc(a1-2)]Gal(b1-4)GlcNAc
# Procedure, shortened: as §1
# [3] = molecular target: Fuc(a1-2)Gal(b1-3)GalNAc(b1-3)Gal
# Procedure, shortened: as §1
# [4] = molecular target: Fuc(a1-2)Gal(b1-3)GalNAc(b1-3)Gal(a1-4)Gal(b1-4)Glc
# Procedure, shortened: as §1
# [5] = molecular target: Fuc(a1-2)Gal(b1-3)GalNAc(b1-4)[Neu5Ac(a2-3)]Gal(b1-4)Glc
# Procedure, shortened: as §1
# Fuc(a1-2)Gal(b1-3)GlcNAc = molecular target: Fuc(a1-2)Gal(b1-3)GlcNAc
# Procedure, shortened: as §1
# [6] = molecular target: Fuc(a1-2)Gal(b1-3)GlcNAc(b1-2)Man(a1-3)[Fuc(a1-2)Gal(b1-3)GlcNAc(b1-2)Man(a1-6)]Man(b1-4)GlcNAc(b1-4)GlcNAc
# Procedure, shortened: as §1
# [7] = molecular target: Fuc(a1-2)Gal(b1-3)GlcNAc(b1-2)Man(a1-3)[Fuc(a1-2)Gal(b1-3)GlcNAc(b1-2)Man(a1-6)]Man(b1-4)GlcNAc(b1-4)[Fuc(a1-6)]GlcNAc
# Procedure, shortened: as §1
# [8] = molecular target: Fuc(a1-2)Gal(b1-3)GlcNAc(b1-3)Gal(b1-4)Glc
# Procedure, shortened: as §1
# [9] = molecular target: Fuc(a1-2)Gal(b1-3)GlcNAc(b1-3)GalNAc
# Procedure, shortened: as §1
# [10] = molecular target: Fuc(a1-2)Gal(b1-3)GlcNAc(b1-3)[Fuc(a1-2)Gal(b1-3)GlcNAc(b1-6)]GalNAc
# Procedure, shortened: as §1
# [11] = molecular target: Fuc(a1-2)Gal(b1-3)GlcNAc(b1-3)[Gal(b1-4)GlcNAc(b1-6)]Gal(b1-4)Glc
# Procedure, shortened: as §1
# [12] = molecular target: Fuc(a1-2)Gal(b1-3)GlcNAc(b1-3)[Neu5Ac(a2-6)Gal(b1-4)GlcNAc(b1-6)]Gal(b1-4)Glc
# Procedure, shortened: as §1
# [13] = molecular target: Fuc(a1-2)Gal(b1-3)GlcNAc6S
# Procedure, shortened: as §1
# [14] = molecular target: Fuc(a1-2)Gal(b1-3)[Fuc(a1-4)]GlcNAc
# Procedure, shortened: as §1
# [15] = molecular target: Fuc(a1-2)Gal(b1-3)[Fuc(a1-4)]GlcNAc(b1-2)Man(a1-3)[Fuc(a1-2)Gal(b1-3)[Fuc(a1-4)]GlcNAc(b1-2)Man(a1-3)]Man(b1-4)GlcNAc(b1-4)GlcNAc
# Procedure, shortened: as §1
# [16] = molecular target: Fuc(a1-2)Gal(b1-3)[Fuc(a1-4)]GlcNAc(b1-2)Man(a1-3)[Fuc(a1-2)Gal(b1-3)[Fuc(a1-4)]GlcNAc(b1-2)Man(a1-6)]Man(b1-4)GlcNAc(b1-4)[Fuc(a1-6)]GlcNAc(b1-4)[Fuc(a1-6)]GlcNAc
# Procedure, shortened: as §1
# [17] = molecular target: Fuc(a1-2)Gal(b1-3)[Fuc(a1-4)]GlcNAc(b1-3)[Fuc(a1-3)[Gal(b1-4)]GlcNAc(b1-6)]Gal(b1-4)Glc
# Procedure, shortened: as §1
# [18] = molecular target: Fuc(a1-2)Gal(b1-3)[Fuc(a1-4)]GlcNAc(b1-3)[Gal(b1-4)GlcNAc(b1-6)]Gal(b1-4)Glc
# Procedure, shortened: as §1
# Fuc(a1-2)Gal(b1-4)Glc = molecular target: Fuc(a1-2)Gal(b1-4)Glc
# Procedure, shortened: as §1
# Fuc(a1-2)Gal(b1-4)Glc6S = molecular target: Fuc(a1-2)Gal(b1-4)Glc6S
# Procedure, shortened: as §1
# Fuc(a1-2)Gal(b1-4)GlcNAc = molecular target: Fuc(a1-2)Gal(b1-4)GlcNAc
# Procedure, shortened: as §1
# [19] = molecular target: Fuc(a1-2)Gal(b1-4)GlcNAc(b1-2)Man
# Procedure, shortened: as §1
# [20] = molecular target: Fuc(a1-2)Gal(b1-4)GlcNAc(b1-2)Man(a1-3)[Fuc(a1-2)Gal(b1-4)GlcNAc(b1-2)Man(a1-6)]Man(b1-4)GlcNAc(b1-4)GlcNAc
# Procedure, shortened: as §1
# [21] = molecular target: Fuc(a1-2)Gal(b1-4)GlcNAc(b1-2)Man(a1-3)[Fuc(a1-2)Gal(b1-4)GlcNAc(b1-2)Man(a1-6)]Man(b1-4)GlcNAc(b1-4)[Fuc(a1-6)]GlcNAc
# Procedure, shortened: as §1
# [22] = molecular target: Fuc(a1-2)Gal(b1-4)GlcNAc(b1-2)[Fuc(a1-2)Gal(b1-4)GlcNAc(b1-4)]Man(a1-3)[Fuc(a1-2)Gal(b1-4)GlcNAc(b1-2)Man(a1-6)]Man(b1-4)GlcNAc(b1-4)GlcNAc
# Procedure, shortened: as §1
# [23] = molecular target: Fuc(a1-2)Gal(b1-4)GlcNAc(b1-3)Gal(b1-4)GlcNAc
# Procedure, shortened: as §1
# [24] = molecular target: Fuc(a1-2)Gal(b1-4)GlcNAc(b1-3)Gal(b1-4)GlcNAc(b1-2)Man(a1-3)[Fuc(a1-2)Gal(b1-4)GlcNAc(b1-3)Gal(b1-4)GlcNAc(b1-2)Man(a1-6)]Man(b1-4)GlcNAc(b1-4)GlcNAc
# Procedure, shortened: as §1
binder,measurement,setting,value
B1,glycan array binding signal (z-score),Fuc(a1-2)Gal,-0.225
same,glycan array binding signal (z-score),Fuc(a1-2)Gal(b1-3)GalNAc,-0.267
same,glycan array binding signal (z-score),[1],-0.137
same,glycan array binding signal (z-score),[2],-0.247
same,glycan array binding signal (z-score),[3],-0.099
same,glycan array binding signal (z-score),[4],-0.218
same,glycan array binding signal (z-score),[5],-0.229
same,glycan array binding signal (z-score),Fuc(a1-2)Gal(b1-3)GlcNAc,-0.278
same,glycan array binding signal (z-score),[6],-0.082
same,glycan array binding signal (z-score),[7],0.337
same,glycan array binding signal (z-score),[8],-0.234
same,glycan array binding signal (z-score),[9],-0.268
same,glycan array binding signal (z-score),[10],-0.034
same,glycan array binding signal (z-score),[11],-0.085
same,glycan array binding signal (z-score),[12],-0.158
same,glycan array binding signal (z-score),[13],-0.222
same,glycan array binding signal (z-score),[14],-0.177
same,glycan array binding signal (z-score),[15],1
same,glycan array binding signal (z-score),[16],-0.081
same,glycan array binding signal (z-score),[17],-0.24
same,glycan array binding signal (z-score),[18],0.015
same,glycan array binding signal (z-score),Fuc(a1-2)Gal(b1-4)Glc,-0.247
same,glycan array binding signal (z-score),Fuc(a1-2)Gal(b1-4)Glc6S,-0.207
same,glycan array binding signal (z-score),Fuc(a1-2)Gal(b1-4)GlcNAc,-0.258
same,glycan array binding signal (z-score),[19],-0.221
same,glycan array binding signal (z-score),[20],-0.099
same,glycan array binding signal (z-score),[21],0.58
same,glycan array binding signal (z-score),[22],0.163
same,glycan array binding signal (z-score),[23],-0.27
same,glycan array binding signal (z-score),[24],0.037
